EPA's CvTdb concentration-time database
Further values from the same series stand in other lists.

Experiments:
Assay in all cases: concentration in plasma after dosing
[1] = test system: Rat; conditions: 864 h; dosed: Perfluorooctane Sulfonate; 20 mg/kg; oral; Male; Harlan Sprague Dawley
[2] = test system: Rat; conditions: 6 h; dosed: Perfluorooctane Sulfonate; 20 mg/kg; oral; Male; Harlan Sprague Dawley
[3] = test system: Rat; conditions: 3360 h; dosed: Perfluorooctane Sulfonate; 20 mg/kg; oral; Male; Harlan Sprague Dawley
[4] = test system: Rat; conditions: dosed: Perfluorooctane Sulfonate, 20 mg/kg, oral, Female, F344
[5] = test system: Rat; conditions: 864 h; dosed: Perfluorooctane Sulfonate; 2 mg/kg; oral; Female; Harlan Sprague Dawley
[6] = test system: Rat; conditions: 1848 h; dosed: Perfluorooctane Sulfonate; 20 mg/kg; oral; Male; Harlan Sprague Dawley
[7] = test system: Rat; conditions: 24 h; dosed: Perfluorooctane Sulfonate; 2 mg/kg; oral; Female; Harlan Sprague Dawley
[8] = test system: Rat; conditions: dosed: Perfluorodecanoic acid, 10 mg/kg, oral, Male, Harlan Sprague Dawley
[9] = test system: Rat; conditions: dosed: Perfluorodecanoic acid, 2 mg/kg, oral, Male, Harlan Sprague Dawley
[10] = test system: Rat; conditions: dosed: Perfluorodecanoic acid, 20 mg/kg, oral, Female, Harlan Sprague Dawley
[11] = test system: Rat; conditions: dosed: Perfluorodecanoic acid, 2 mg/kg, oral, Male, Harlan Sprague Dawley; remark: listed apart in the source
[12] = test system: Rat; conditions: dosed: Perfluorodecanoic acid, 20 mg/kg, oral, Female, Harlan Sprague Dawley; remark: listed apart in the source
[13] = test system: Rat; conditions: dosed: Perfluorodecanoic acid, 2 mg/kg, oral, Male, Harlan Sprague Dawley; remark: listed apart in the source
[14] = test system: Rat; conditions: dosed: Perfluorodecanoic acid, 10 mg/kg, oral, Female, Harlan Sprague Dawley
[15] = test system: Rat; conditions: dosed: Perfluorodecanoic acid, 10 mg/kg, oral, Male, Harlan Sprague Dawley; remark: listed apart in the source
[16] = test system: Rat; conditions: dosed: Perfluorodecanoic acid, 10 mg/kg, oral, Female, Harlan Sprague Dawley; remark: listed apart in the source
[17] = test system: Rat; conditions: dosed: Perfluorodecanoic acid, 2 mg/kg, oral, Male, Harlan Sprague Dawley; remark: listed apart in the source
[18] = test system: Rat; conditions: dosed: Perfluorodecanoic acid, 20 mg/kg, oral, Female, Harlan Sprague Dawley; remark: listed apart in the source
[19] = test system: Rat; conditions: dosed: Fluorotelomer alcohol 8+2, 48 mg/kg, oral, Male, Harlan Sprague Dawley
[20] = test system: Rat; conditions: 12 h; dosed: Perfluorooctanoic acid; 12 mg/kg; oral; Male; Harlan Sprague Dawley
[21] = test system: Rat; conditions: 192 h; dosed: Perfluorooctanoic acid; 80 mg/kg; oral; Female; Harlan Sprague Dawley
[22] = test system: Rat; conditions: dosed: Perfluorooctanoic acid, 40 mg/kg, iv, Male, F344
[23] = test system: Rat; conditions: 48 h; dosed: Perfluorooctanoic acid; 80 mg/kg; oral; Female; Harlan Sprague Dawley
[24] = test system: Rat; conditions: dosed: Perfluorooctanoic acid, 12 mg/kg, oral, Male, Harlan Sprague Dawley
[25] = test system: Rat; conditions: 3 h; dosed: Fluorotelomer alcohol 8+2; 24 mg/kg; oral; Male; Harlan Sprague Dawley
[26] = test system: Rat; conditions: 48 h; dosed: Fluorotelomer alcohol 8+2; 40 mg/kg; oral; Female; Harlan Sprague Dawley
[27] = test system: Rat; conditions: 3 h; dosed: Fluorotelomer alcohol 8+2; 40 mg/kg; oral; Female; Harlan Sprague Dawley
[28] = test system: Rat; conditions: dosed: Perfluorooctanoic acid, 320 mg/kg, oral, Female, Harlan Sprague Dawley
[29] = test system: Rat; conditions: 9 h; dosed: Fluorotelomer alcohol 8+2; 24 mg/kg; oral; Male; Harlan Sprague Dawley
[30] = test system: Rat; conditions: 24 h; dosed: Perfluorooctanoic acid; 40 mg/kg; iv; Male; F344
[31] = test system: Rat; conditions: 12 h; dosed: Perfluorooctanoic acid; 80 mg/kg; oral; Female; Harlan Sprague Dawley
[32] = test system: Rat; conditions: dosed: Perfluorooctanoic acid, 6 mg/kg, oral, Male, Harlan Sprague Dawley
[33] = test system: Rat; conditions: 1 h; dosed: Fluorotelomer alcohol 8+2; 24 mg/kg; oral; Male; Harlan Sprague Dawley

O=S(=O)([O-])C(F)(F)C(F)(F)C(F)(F)C(F)(F)C(F)(F)C(F)(F)C(F)(F)C(F)(F)F [Perfluorooctane Sulfonate]
Conditions	concentration in plasma [ng/mL]
[1]	24200
[2]	70000
[3]	6170
[5]	3270
[6]	13300
[7]	7880

[4]
Conditions	concentration in plasma [ng/mL]
5 min	891
12 h	114000
1200 h	29800

O=C(O)C(F)(F)C(F)(F)C(F)(F)C(F)(F)C(F)(F)C(F)(F)C(F)(F)C(F)(F)C(F)(F)F [Perfluorodecanoic acid]
Conditions	concentration in plasma [ng/mL]
[8], 6 h	36800
[8], 1200 h	7190
[8], 3360 h	2130
[9], 2 h	6970
[9], 528 h	5080
[9], 3360 h	827
[10], 0.5 h	29600
[10], 24 h	146000
[10], 1848 h	15000
[11], 12 h	10800
[11], 1200 h	2300
[12], 2 h	62800
[12], 528 h	40600
[12], 3360 h	8000
[13], 0.5 h	2770
[13], 24 h	10900
[13], 1848 h	1970
[14], 2 h	29900
[14], 528 h	23200
[14], 2520 h	7240
[15], 0.5 h	13000
[15], 192 h	23500
[15], 1848 h	5080
[16], 0.5 h	21000
[16], 192 h	52300
[16], 1848 h	9420
[17], 6 h	6590
[17], 864 h	1670
[18], 6 h	88700
[18], 864 h	27100

O=C(O)C(F)(F)C(F)(F)C(F)(F)C(F)(F)C(F)(F)C(F)(F)C(F)(F)F [Perfluorooctanoic acid]
Conditions	concentration in plasma [ng/mL]
[19], 0.75 h	21
[19], 12 h	331
[22], 0.25 h	264000
[22], 6 h	108000
[24], 0.25 h	17700
[24], 864 h	11000
[28], 3 h	364000
[28], 24 h	358000
[32], 6 h	45600
[32], 192 h	19800

Conditions	concentration in plasma [ng/mL]
[20]	76200
[21]	1390
[23]	628
[25]	698
[26]	19.6
[27]	1150
[29]	925
[30]	819
[31]	85800
[33]	620
